# Data published in PubChem BioAssay AID360 (National Center for Advancing Translational Sciences (NCATS), 2006).
# The whole screen tested about 48,000 compounds, of which about 550 (1.1%) were called active. Not shown: some 4% with an inconclusive outcome. Rule as the data show it: active = potency below about 15 µM; inconclusive = mostly about 16 µM to 33 µM; inactive = weaker than that. The list shows a part of the results.
# Target: Lysosomal acid glucosylceramidase (Homo sapiens) (UniProt P04062)
# Assay: Glucocerebrosidase;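 also: the screen sought inhibitors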
# Conditions: purified enzyme, resorufin glucoside fluorescence (screen aimed at inhibitors), 20 min; series mostly up to 77 µM
# How it was run: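 Compounds titrated against 0.2 nM normal enzyme, 30 uM resorufin beta-D-glucopyranoside substrate, citrate/phosphate buffer with taurocholate and tween-20, pH 5.9. Reaction ran 20 min at room temperature; fluorescence (Ex 548/Em 600) gave AC50.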
# Potency is read from the fitted curve at half-maximal effect.
# Sequence of UniProt P04062 (P04062 whole entry, looked up): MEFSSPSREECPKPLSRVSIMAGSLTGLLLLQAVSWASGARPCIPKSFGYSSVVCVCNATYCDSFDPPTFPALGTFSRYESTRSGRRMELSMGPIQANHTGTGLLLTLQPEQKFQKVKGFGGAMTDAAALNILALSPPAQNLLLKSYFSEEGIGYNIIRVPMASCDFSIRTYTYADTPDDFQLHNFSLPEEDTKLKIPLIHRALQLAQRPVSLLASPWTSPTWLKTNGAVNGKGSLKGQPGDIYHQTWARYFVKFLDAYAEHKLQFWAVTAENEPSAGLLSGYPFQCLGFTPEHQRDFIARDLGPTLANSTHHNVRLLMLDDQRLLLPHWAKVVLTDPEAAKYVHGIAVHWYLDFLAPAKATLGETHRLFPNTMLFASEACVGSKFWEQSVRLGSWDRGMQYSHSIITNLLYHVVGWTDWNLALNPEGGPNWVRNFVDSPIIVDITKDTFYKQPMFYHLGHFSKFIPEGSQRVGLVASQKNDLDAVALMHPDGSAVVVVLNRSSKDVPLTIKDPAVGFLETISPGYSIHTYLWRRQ
row,SMILES,Potency
1,Cc1cc(NS(=O)(=O)c2ccc(NC(=O)CCN3C(=O)c4ccccc4C3=O)cc2)no1,inactive: > 76.9 µM
2,CC(C)CNC(=O)c1ccccc1NC(=O)CN(c1ccc2c(c1)OCCO2)S(C)(=O)=O,inactive: > 76.9 µM
3,CCOc1ccccc1NC(=O)CSc1nnc(-c2ccccn2)n1Cc1ccco1,inactive: > 76.9 µM
4,COc1ccc(C2=NOC3(CC(=O)N(c4ccc(C)cc4)C3=O)C2)c(OC)c1 (stereo unspecified),inactive: > 76.9 µM
5,Cc1[nH]c(=O)[nH]c(=O)c1S(=O)(=O)NCC12CC3CC(CC(C3)C1)C2,inactive: > 76.9 µM
6,O=C(O)c1ccc(CNC(=O)c2ccc(Br)o2)cc1,inactive: > 76.9 µM
7,CC(C)(C)C(=O)Cn1c(NCCCO)nc2ccccc21,inactive
8,COc1ccc(C(=O)NCc2ccccc2OC)cc1,inactive: > 76.9 µM
9,O=C(COC(=O)C12CC3CC(CC(C3)C1)C2)NCc1ccco1,inactive: > 76.9 µM
10,CCOC(=O)C1C(=O)CC(C)(O)C(C(=O)OCC)C1c1cc(Br)ccc1OC (stereo unspecified),inactive: > 76.9 µM
11,COC(=O)[C@H](Cc1ccccc1)NC(=O)Nc1ccc(S(N)(=O)=O)cc1,inactive: > 76.9 µM
12,CC1(C)CC(=NO)CC(C)(C)N1,inactive: > 76.9 µM
13,CC(C)NC(=O)Cn1c(SCC(=O)N2CCCCCC2)nc2ccccc21,inactive: > 76.9 µM
14,CC1CCN(C(c2ccccc2)c2nnnn2C(C)(C)C)CC1 (stereo unspecified),inactive: > 76.9 µM
15,COc1ccc(OCCn2c(=N)n(CCO)c3ccccc32)cc1,active: 4.33 µM
16,c1cn2cc(CSC3CCCCC3)nc2s1,inactive: > 76.9 µM
17,COc1ccc(NC(=O)C2Cc3ccccc3CN2C(=O)c2ccccc2)cn1 (stereo unspecified),inactive: > 76.9 µM
18,O=C(COc1ccccc1Cl)NCCCN1CCOCC1,inactive: > 76.9 µM
19,CCNc1oc(-c2cccc3ccccc23)nc1C#N,inactive: > 76.9 µM
20,Cc1ccccc1N(CC(=O)NCCc1ccccc1)C(=O)c1ccc(N2CCCC2)nc1,inactive: > 76.9 µM
21,Cc1cc(=O)cc(C)n1-c1ccc2c(c1)nc(C)n2-c1ccccc1,inactive: > 76.9 µM
22,CCCCOC(=O)C1[C@H]2C(=O)N(Cc3cccs3)C[C@]23C=C[C@H]1O3 (stereo partly specified),inactive: > 76.9 µM
23,CC(C)CC(=O)CN1C(=O)C2(OCCO2)c2ccccc21,inactive: > 76.9 µM

row,SMILES,Potency
1,CCOC(=O)c1c(CN2CCCCC2C)oc2ccc(OC)cc12 (stereo unspecified),inactive: > 76.9 µM
2,CCOc1cccc(C(=O)Nc2ccccc2N2CCN(C(=O)C(C)C)CC2)c1,inactive: > 76.9 µM
3,COc1cccc(CNC(=O)C2CCCN(c3nc4ccccc4o3)C2)c1 (stereo unspecified),inactive: > 76.9 µM
4,Cc1cccnc1NC(=O)CCCN1C(=O)c2ccccc2C1=O,inactive: > 76.9 µM
5,CCOCCn1cnc2sc(C(=O)NCC(=O)OCC)c(C)c2c1=O,inactive
6,CCOc1ccccc1OCCOCCN1CC(C)OC(C)C1 (stereo unspecified),inactive: > 76.9 µM
7,CCOc1cc(C)c(Cl)cc1S(=O)(=O)N(CC)CC,inactive: > 76.9 µM
8,CC(C)[C@H](NC(=O)NCc1ccc(Cl)cc1)C(=O)O,inactive: > 76.9 µM
9,Cc1ccc(CCNC(=O)C2CCCN(S(=O)(=O)c3cccc4nsnc34)C2)cc1 (stereo unspecified),inactive: > 76.9 µM
10,Nn1c(Cc2ccccc2F)nnc1SCC(=O)N1CC(=O)Nc2ccccc21,inactive: > 76.9 µM
11,COc1ccc(Cn2nnnc2C(c2ccccc2)N2CCN(C3CCCC3)CC2)cc1 (stereo unspecified),inactive: > 76.9 µM
12,Cc1ccc(-c2nc(CS(=O)CC(=O)NCCN(CC(C)C)CC(C)C)c(C)o2)cc1 (stereo unspecified),inactive: > 76.9 µM
13,CCOC(=O)Cn1c(=O)c2c(nc(Br)n2Cc2ccc(Cl)cc2)n(C)c1=O,inactive: > 76.9 µM
14,O=C(O)C1CCCCC1C(=O)NCCc1ccccc1 (stereo unspecified),inactive: > 76.9 µM
15,O=C(O)CSCc1ccc(Cl)cc1,inactive: > 76.9 µM
16,Cc1cc(CC(C)C)n(-c2nc3ccccc3c(=O)n2OCC(=O)N(C)C)n1,inactive: > 76.9 µM
17,Cc1cc(C)nc(N2CCCC(C(=O)Nc3nnc(C)s3)C2)n1 (stereo unspecified),inactive
18,COc1ccccc1C1/C(=C(/O)c2ccc(C)cc2)C(=O)C(=O)N1CC(C)O (stereo unspecified),inactive: > 76.9 µM
19,O=C(Nc1ccccc1)C1CCN(c2nccs2)CC1,inactive: > 76.9 µM
20,O=C(Oc1ccc(Cl)c2cccnc12)N1CCCCC1,inactive: > 76.9 µM
21,Cc1cc(C)nc(NC(=O)CSc2nn(C)c(=S)s2)n1,inactive: > 76.9 µM
22,CCOC(=O)C1=C(C)NC(C)=C(C(=O)OCC)C1C(=O)OCC(=O)N1CCc2ccccc21,inactive: > 76.9 µM
23,CCOc1ccccc1Nc1nc(N)nc(CN(C)C2CCCCC2)n1,inactive
